Patent publication US12643954B2, “Anti-CD36 antibodies and their use to treat cancer” (ONA Therapeutics, S.L., priority 2020, dated 2026)

Columns and labels:
mouse CD36 = molecular target: T1, mouse CD36 (Mus musculus, UniProt Q08857); assay: ELISA binding to plate-coated mouse CD36; settings: recombinant mouse CD36 coated plates
T1 construct: purchased Sino Biological 50422-M08H
Protocol: To perform ELISA assays, 96-well ELISA plates were coated over night with human CD36 (Sino Biological, reference 10752-H08H) or mouse CD36 (Sino Biological, reference 50422-M08H) recombinant proteins at a concentration of 0.25 mg/ml. After two washes with PBS, plates were blocked with 4% skimmed milk in PBS for 1 hour at 37° C. Blocking solution was discarded and plates were washed five times with 200 μl/well PBS-Tween20 (0.5%). Primary antibodies were either omitted (control blocking solution treatment) or mixed in blocking solution at several dilutions ranging from 0.01 nM to 0.5 μM. The primary antibody solutions were added to the wells and incubated over night at 4° C. After 5 washes with 200 ul/well of PBS-Tween20 (0.5%), plates were incubated for 1 hour at room temperature with a goat anti-mouse HRP-conjugated antibody (Abeam, reference ab97235) diluted 1:2000 in blocking solution. Plates were then washed 5 times with 200 μl/well of PBS-Tween20 (0.5%), incubated with 100 μl/well TMB and detected after 10 minutes, 30 minutes, or 60 minutes with a spectrophotometer at a wave length of 630 nm.

CD36 = CD36 (Homo sapiens, UniProt P16671); assay: Surface plasmon resonance (Biacore T200) affinity for human CD36; type: binding
UniProt P16671, sequence (P16671 whole entry): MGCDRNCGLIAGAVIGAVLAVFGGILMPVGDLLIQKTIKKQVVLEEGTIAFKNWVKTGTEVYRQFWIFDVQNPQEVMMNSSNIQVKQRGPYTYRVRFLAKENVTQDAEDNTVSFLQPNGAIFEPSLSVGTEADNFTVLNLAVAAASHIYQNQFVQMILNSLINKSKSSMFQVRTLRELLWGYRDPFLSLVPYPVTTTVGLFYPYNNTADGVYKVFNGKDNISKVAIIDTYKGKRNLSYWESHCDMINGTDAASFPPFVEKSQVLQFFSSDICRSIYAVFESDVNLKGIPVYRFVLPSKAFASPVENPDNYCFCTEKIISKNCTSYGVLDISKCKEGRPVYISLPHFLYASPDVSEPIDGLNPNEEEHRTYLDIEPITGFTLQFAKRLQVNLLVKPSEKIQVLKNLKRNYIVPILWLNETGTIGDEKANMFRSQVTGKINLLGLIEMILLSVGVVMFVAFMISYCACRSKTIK
Protocol: The affinity of ONA-0-v1, 1G04, and a commercial anti-CD36 antibody (JC63.1) for human CD36 was also measured by surface plasmon resonance (SPR) using a Biacore T200. 1G04 was analysed using a protein A capture surface, with a capture range of 100-150 RU and an antigen titration range of 3.3-333 nM. The mouse antibodies ONA-0-V1 and the commercial anti-CD36 antibody were analysed using an anti-mouse IgA capture surface, with a capture range of 160-180 RU and an antigen titration range of 3.3-333 nM. For each single analysis cycle a titration of five antigen concentrations were injected over the captured antibody and then the dissociation of the complex was measured. A double referencing method was employed in which data from the reference surfaces where no antibody was captured (fc 1 and 3 respectively) were subtracted from the antibody bound capture surface (fc 2 and 4). Blank injections of buffer were run for every antigen titration cycle and then subtracted from analyte injection cycles, to correct for small changes in the antibody capture surface density. All analysis was performed at 25° C., and the sample rack was kept at 6° C. during experimental runs. Each experiment was run at least three times with the mean binding constants generated from at least two independent assays reported. All analysis was performed in PBS-T running buffer at 40 μL/min.

OVCAR-3 cells = assay: OVCAR-3 orthotopic mouse model of ovarian cancer (Example 9); type: in vivo
Protocol: Studies of the effects of the ONA-0-v1 and 1G04 anti-CD36 antibodies on ovarian cancer were performed in NSG mice (immuno-deficient). The studies included only female mice. All mice were inoculated with commercially available OVCAR-3 (ATCC) cancer cells. OVCAR-3 cells were derived from a human progressive adenocarcinoma of the ovary (i.e., from an ovarian cancer). For each mouse, a piece of an OVCAR-3 xenograft was implanted orthotopically. Prior to inoculation, the OVCAR-3 cells were cultured in a humidified incubator at 37° C. with 5% CO2, and were grown in RPMI-1640 supplemented with 5 μg ml^−1 penicillin/streptomycin, 0.01 mg/ml bovine insulin and 20% FBS (GIBCO).
Treatment of the implanted mice began 7 days after implantation with the OVCAR-3 tumor pieces. Inoculated mice were divided into one of three treatment groups: vehicle injection control (n=9), ONA-0-v1 treatment (n=9), or 1G04 treatment (n=9). ONA-0-v1 antibody treatments were administered via intraperitoneal (i.p.) injection daily at a dose of 3 mg/kg. 1G04 antibody treatments were administered via i.p. injection TIW (three-times weekly) at a dose of 10 mg/kg. Control mice received an equal volume of vehicle daily. […] Mice were sacrificed at the end of the treatment period. Upon sacrifice, organs and tissues were collected for performance of necropsy and histopathology analysis.

MC-38 cells = assay: MC-38 intrasplenic syngeneic colon cancer model; type: in vivo, mouse
Protocol: Studies of the effects of the 1G04 anti-CD36 antibody on lung cancer were performed in C57BL/6 mice (immuno-competent). The studies included only female mice. All mice were inoculated with commercially available MC-38 cancer cells, transduced with a vector expressing luciferase. MC-38 cells are cells derived from a mouse colon adenocarcinoma (i.e. from a colon cancer). Prior to inoculation, MC-38 cells were cultured in a humidified incubator at 37° C. with 5% CO2 and were grown in DMEM medium supplemented with 5 ug ml^−1 penicillin/streptomycin and 10% FBS (GIBCO).
For each mouse, 1×10^6 MC-38 cells were inoculated intrasplenically. Each mouse was imaged 4 days later, and liver metastasis was confirmed by ex vivo luminescence prior to start of treatment on day 5 after inoculation. As detailed in FIG. 31B, inoculated mice were divided into one of two treatment groups: vehicle injection control (n=13) or 1G04 treatment (n=10). Antibody treatments were administered via intraperitoneal (i.p.) injection at a dose of 10 mg/kg three times per week, while control mice received an equal volume of vehicle on the same schedule. One day prior to the start of treatment, and twice weekly after the start of treatment, all mice were imaged via IVIS. Mice were sacrificed at the end of the treatment period (day 60). […]

T1 sequence (Q08857 30-439 limits assumed): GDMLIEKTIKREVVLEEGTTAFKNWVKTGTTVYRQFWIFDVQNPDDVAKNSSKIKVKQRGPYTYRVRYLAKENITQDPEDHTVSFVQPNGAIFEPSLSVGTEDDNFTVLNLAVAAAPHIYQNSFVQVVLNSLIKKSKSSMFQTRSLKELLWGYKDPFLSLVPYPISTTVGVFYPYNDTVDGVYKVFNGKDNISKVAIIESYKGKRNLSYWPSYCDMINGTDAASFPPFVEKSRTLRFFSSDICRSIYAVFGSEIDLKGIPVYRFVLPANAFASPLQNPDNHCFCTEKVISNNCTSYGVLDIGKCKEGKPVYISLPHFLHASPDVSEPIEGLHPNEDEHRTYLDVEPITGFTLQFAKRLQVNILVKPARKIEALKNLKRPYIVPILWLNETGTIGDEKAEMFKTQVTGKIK

B1: 1G04: chimeric ONA-0-v1 IgG1 LALA antibody; heavy chain SEQ ID NO: 21, light chain SEQ ID NO: 23 (antibody)
heavy: QVQLKQSGADLVRPGASVKLSCKASGYTFTDYYINWVKQRPGQGLEWIARIYPGSGNTYYNEKFKGKATLTAEKSSSTAYMQLSSLTSEDSAVYFCARGIGGGFGMDYWGQGTSVTVSS[skipping human IgG1 constant region with changes]
light: SIVMTQTPKFLLVSAGDRITITCKASQSVSDDVAWYQQKPGQSPKLLIYYASNRYTGVPDRFTGSGYGTDFTFTISTVQAEDLAVYFCQQDYSSPLTFGAGTKLEIKRTVAAPSVFIFPPSDEQLKSGTASVVCLLNNFYPREAKVQWKVDNALQSGNSQESVTEQDSKDSTYSLSSTLTLSKADYEKHKVYACEVTHQGLSSPVTKSFNRGEC
modifications: 1G04 heavy chain; 1G04 light chain; 1G06 light chain
binding to mouse CD36 in ELISA (mouse CD36): specifically bound | comparison of SPR binding to human CD36 (CD36; SPR analysis, in words): tightest binding | ka (CD36; SPR, 1-to-1 model, 25° C.): 100000 M⁻¹ s⁻¹ | kd (CD36; SPR, 1-to-1 model, 25° C.): 0.000159 s⁻¹ | ka1 (CD36; SPR, 2-state model): 157000 M⁻¹ s⁻¹ | ka2 (CD36; SPR, 2-state model): 0.00131 s⁻¹ | kd1 (CD36; SPR, 2-state model): 0.00324 s⁻¹ | kd2 (CD36; SPR, 2-state model): 0.000164 s⁻¹ | ka2 (CD36; SPR, bivalent model): 6.41E−02 1/RUs | kd1 (CD36; SPR, bivalent model): 0.000669 s⁻¹ | kd2 (CD36; SPR, bivalent model): 0.0548 s⁻¹ | ka1 (CD36; SPR, bivalent model, first ka1 column): 52300 M⁻¹ s⁻¹ | Kd (CD36; SPR, bivalent model, read-out: KD1): 15.6 nM | Kd (CD36; SPR, bivalent model, read-out: KD2): 114 nM | decrease in total number of metastases relative to vehicle (OVCAR-3 cells; ONA-0-v1 3 mg/kg i.p. daily, 1G04 10 mg/kg i.p. TIW): approximately 35% | mice free of metastasis in the liver (OVCAR-3 cells; macroscopic analysis): 89% | mice having 1-2 mm metastasis in the liver (OVCAR-3 cells; macroscopic analysis): 11% | mice having 1-2 mm metastasis in the peritoneal wall (OVCAR-3 cells; macroscopic analysis): 49% | mice having 2-5 mm metastasis in the liver (OVCAR-3 cells; macroscopic analysis): none | mice having 2-5 mm metastasis in the peritoneal wall (OVCAR-3 cells; macroscopic analysis): 11% | mice having <1 mm metastasis in the liver (OVCAR-3 cells; macroscopic analysis): none | mice having >5 mm metastasis in the peritoneal wall (OVCAR-3 cells; macroscopic analysis): 7% | mice metastasis-free in the peritoneal wall (OVCAR-3 cells; macroscopic analysis): 33% | animals free of metastases in the lung (OVCAR-3 cells; microscopic analysis): 66% | mean metastasis number in the lungs per mouse (OVCAR-3 cells; microscopic analysis): 1.2 | weight of mice throughout the treatment period (OVCAR-3 cells; mouse, in vivo): remained the same | total number of metastases counted (OVCAR-3 cells; visual inspection of organs, sum per group): 34 | whole-animal bioluminescence during the study (MC-38 cells; 10 mg/kg i.p. three times per week): decreases luminescence | ex vivo luminescence, liver (MC-38 cells; at sacrifice): 6.67*10^4

Read-outs that look alike come from different tables or passages of the source.
